Experimental findings from the supplement of paper PMC4967469 are described below.

The IC50 comes from the fitted curve, where viability falls to half of the control; where the fit passes the top or lowest dose, that dose stands as a limit. The AUC spans the tested range (256-fold, ending at the top dose) of the same fit: 1 means no effect, lower means more sensitive. For some assays here: The top dose, if marked as inferred, was calculated from the reported fits. For some assays here: An entry number marks a drug with two screens in the source, which often give different values.

Test in all cases: Viability of human cancer cell lines after 72 h of drug (GDSC screen)
Compound in experiment [1]: Cc1sc2c(c1C)C(c1ccc(Cl)cc1)=N[C@@H](CC(=O)OC(C)(C)C)c1nnc(C)n1-2 [JQ1]
The protocol:
(§1)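 Human cancer cell lines in 384-well plates, medium with 10% serum, drug for 72 h over a 256-fold dose range (nine 2-fold or five 4-fold steps up to the top dose). Adherent lines were fixed and stained with the nucleic acid dye Syto60, suspension lines read with resazurin; signal relative to control wells, capped at 0 and 100%. One two-parameter sigmoid per drug and line, fitted in a mixed model over all curves with the slope shared within a line.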

Compound in experiment [2]: O=C(/C=C/c1cccc(S(=O)(=O)Nc2ccccc2)c1)NO [Belinostat]
Conditions: top dose 20 µM; top dose inferred. The protocol:
as §1

Compound in experiment [3]: c1ccc2c(CCNc3ccc(Nc4ccncc4)cc3)c[nH]c2c1 [JNJ-26854165]
Conditions: top dose 10 µM. The method, then:
as §1

Compound in experiment [4]: COCC[n+]1c2c(n(Cc3cnccn3)c1C)C(=O)c1ccccc1C2=O [YM155]
The conditions noted are these: top dose 5.12 µM. The protocol: as §1

Compound in experiment [5]: Cc1ccc(C(=O)N(CCCN)[C@@H](c2nc3cc(Cl)ccc3c(=O)n2Cc2ccccc2)C(C)C)cc1 [SB-715992]
The conditions noted are these: top dose 0.128 µM; top dose inferred. The protocol:
as §1

Compound in experiment [6]: COC(=O)[C@H](CCSC)NC(=O)c1ccc(NC[C@@H](N)CS)cc1-c1ccccc1 [FTI-277]
The conditions noted are these: top dose 1.024 µM; top dose inferred. The protocol: as §1

Compound in experiment [7]: CC(=O)O[C@@]12CO[C@@H]1C[C@H](O)[C@@]1(C)C(=O)[C@H](O)C3=C(C)[C@@H](OC(=O)[C@H](O)[C@@H](NC(=O)OC(C)(C)C)c4ccccc4)C[C@@](O)([C@@H](OC(=O)c4ccccc4)[C@H]21)C3(C)C [Docetaxel]
The conditions noted are these: top dose 0.0125 µM. The method, then: as §1

Compound in experiment [8]: CN1CCN(c2ccc([N+](=O)[O-])c3no[n+]([O-])c23)CC1 [NSC-207895]
Conditions: top dose 20 µM; top dose inferred. The method, then:
as §1

Compound in experiment [9]: CCOc1nc(NC(=O)Cc2cc(OC)ccc2OC)cc(N)c1C#N [JNK Inhibitor VIII]
Conditions: top dose 10 µM; top dose inferred. The protocol: as §1

Compound in experiment [10]: C[C@]1(O)C[C@@H](c2nc(-c3ccc4ccc(-c5ccccc5)nc4c3)c3c(N)nccn32)C1 [OSI-906]
Conditions: top dose 2.56 µM; top dose inferred. The method, then:
as §1

Compound in experiment [11]: CC1(C)CNc2cc(NC(=O)c3cccnc3NCc3ccncc3)ccc21 [AMG-706]
The conditions noted are these: top dose 2 µM; top dose inferred. The method, then: as §1

Where [12] appears, read: top dose 2.56 µM, screen: GDSC drug entry 163.
The mark [13] stands for this setting: top dose 1 µM, screen: GDSC drug entry 1218, top dose inferred.

For KYSE-140 (oesophagus, adherent), the AUC in [1] (setting [12]) stood at 0.754; in experiment [2], 0.98; in experiment [3], 0.823; in experiment [4], 0.983; in experiment [5] it was 0.775; in experiment [6], 0.983. Moreover, the AUC is 0.684 in experiment [7]; 0.983 in experiment [8]; 0.891 in [9]; 0.959 in experiment [10]; 0.948 in experiment [11]. Also, the half-inhibitory concentration (IC50) (as a rule, the concentration that inhibits the measured activity by half) in experiment [1] (setting [12]) is 964 nM; in [2] it was more than 20000 nM; in experiment [3], 6920 nM; in [4], more than 5120 nM; in [5] it was 57.4 nM; in experiment [6], more than 1020 nM. The IC50 in [7] is 2.76 nM; in [8] it was more than 20000 nM; in experiment [9], more than 10000 nM; in [10] it was more than 2560 nM; in experiment [11], more than 2000 nM.
On to KYSE-150 (oesophagus, adherent), for which the AUC in [1] (setting [13]) came out at 0.988; in experiment [1] (setting [12]), 0.52; in experiment [2] it was 0.76; in experiment [3] it was 0.885; in experiment [4], 0.049; in experiment [5], 0.942. The AUC in experiment [6] amounted to 0.969; in experiment [7], 0.812; in experiment [8] it was 0.883; in experiment [9] it was 0.988; in experiment [10], 0.914; in experiment [11] it was 0.989. Moreover, the IC50 in experiment [1] (setting [13]) was more than 1000 nM; in experiment [1] (setting [12]), 181 nM; in experiment [2], 6800 nM; in [3], more than 10000 nM; in experiment [4], less than 20 nM; in experiment [5], more than 128 nM. Further, the IC50 in experiment [6] is more than 1020 nM; in experiment [7], 6.34 nM; in experiment [8] it was 19900 nM; in experiment [9], more than 10000 nM; in experiment [10], more than 2560 nM; in [11], more than 2000 nM.
Regarding KYSE-220 (oesophagus, adherent), the AUC was 0.984 in experiment [1] (setting [13]); 0.648 in experiment [1] (setting [12]); 0.559 in experiment [2]; 0.785 in experiment [3]; 0.034 in experiment [4]; 0.931 in experiment [5]. In addition, the AUC in experiment [6] stood at 0.981; in [7], 0.567; in experiment [8], 0.878; in experiment [9], 0.981; in experiment [10], 0.912; in experiment [11], 0.978. In addition, the concentration for half-maximal inhibition (IC50) in experiment [1] (setting [13]) is more than 1000 nM; in [1] (setting [12]) it was 421 nM; in experiment [2], 1830 nM; in experiment [3], 4530 nM; in [4] it was less than 20 nM; in experiment [5] it was more than 128 nM. Moreover, the IC50 in experiment [6] was more than 1020 nM; in experiment [7], 1.21 nM; in experiment [8], more than 20000 nM; in experiment [9], more than 10000 nM; in experiment [10] it was more than 2560 nM; in experiment [11], more than 2000 nM.
KYSE-410 (oesophagus, adherent): the AUC in [1] (setting [12]) was 0.516; in experiment [2], 0.603; in experiment [3] it was 0.862; in experiment [4] it was 0.147; in [5], 0.833; in [6] it was 0.982. The AUC in experiment [7] turned out to be 0.638; in experiment [8], 0.848; in experiment [9] it was 0.967; in experiment [10], 0.937; in experiment [11], 0.969. Moreover, the IC50 is 177 nM in experiment [1] (setting [12]); 2450 nM in experiment [2]; 9500 nM in experiment [3]; 23.1 nM in [4]; 90.5 nM in experiment [5]; more than 1020 nM in experiment [6]. Moreover, the IC50 in [7] is 1.93 nM; in [8], 16500 nM; in experiment [9] it was more than 10000 nM; in [10], more than 2560 nM; in experiment [11], more than 2000 nM.
As to KYSE-520 (oesophagus, adherent), the AUC in experiment [1] (setting [13]) stood at 0.978; in experiment [1] (setting [12]) it was 0.713; in experiment [2] it was 0.594; in [3], 0.823; in experiment [4], 0.099; in [5], 0.963. Moreover, the AUC in experiment [6] amounted to 0.966; in experiment [7], 0.808; in [8] it was 0.881; in experiment [9] it was 0.964; in [10], 0.929; in experiment [11] it was 0.948. In addition, the IC50 was more than 1000 nM in [1] (setting [13]); 796 nM in experiment [1] (setting [12]); 2480 nM in [2]; 8800 nM in experiment [3]; less than 20 nM in experiment [4]; more than 128 nM in [5]. For the same cell line, the IC50 in experiment [6] is more than 1020 nM; in [7], 9.38 nM; in [8], more than 20000 nM; in experiment [9] it was more than 10000 nM; in experiment [10], more than 2560 nM; in [11] it was more than 2000 nM.
In the case of “LK-2 (lung squamous cell carcinoma, adherent)”, the AUC in experiment [1] (setting [13]) was 0.979; in [1] (setting [12]), 0.941; in [2] it was 0.313; in experiment [3], 0.935; in experiment [4], 0.033; in experiment [5], 0.733. For the same cell line, the AUC in experiment [6] turned out to be 0.981; in experiment [7], 0.639; in [8], 0.962; in experiment [9], 0.989; in experiment [10], 0.945; in experiment [11], 0.962. Further, the IC50 is more than 1000 nM in experiment [1] (setting [13]); more than 2560 nM in [1] (setting [12]); 388 nM in experiment [2]; more than 10000 nM in [3]; less than 20 nM in [4]; 35.2 nM in experiment [5]. The IC50 is more than 1020 nM in experiment [6]; 1.84 nM in experiment [7]; more than 20000 nM in experiment [8]; more than 10000 nM in experiment [9]; more than 2560 nM in [10]; more than 2000 nM in experiment [11].
